# Screen size: about 310,000 compounds; about 2,200 (0.71%) showed an effect of 50% or more. The effect is printed as a negative number. Some of the results follow.
# Target: human ether-à-go-go-related gene (hERG) potassium channel (human, UniProt Q12809)
# Assay: primary screen, population patch clamp on CHO cells stably expressing hERG
# Sequence of human ether-à-go-go-related gene (hERG) potassium channel (Q12809 whole entry, looked up): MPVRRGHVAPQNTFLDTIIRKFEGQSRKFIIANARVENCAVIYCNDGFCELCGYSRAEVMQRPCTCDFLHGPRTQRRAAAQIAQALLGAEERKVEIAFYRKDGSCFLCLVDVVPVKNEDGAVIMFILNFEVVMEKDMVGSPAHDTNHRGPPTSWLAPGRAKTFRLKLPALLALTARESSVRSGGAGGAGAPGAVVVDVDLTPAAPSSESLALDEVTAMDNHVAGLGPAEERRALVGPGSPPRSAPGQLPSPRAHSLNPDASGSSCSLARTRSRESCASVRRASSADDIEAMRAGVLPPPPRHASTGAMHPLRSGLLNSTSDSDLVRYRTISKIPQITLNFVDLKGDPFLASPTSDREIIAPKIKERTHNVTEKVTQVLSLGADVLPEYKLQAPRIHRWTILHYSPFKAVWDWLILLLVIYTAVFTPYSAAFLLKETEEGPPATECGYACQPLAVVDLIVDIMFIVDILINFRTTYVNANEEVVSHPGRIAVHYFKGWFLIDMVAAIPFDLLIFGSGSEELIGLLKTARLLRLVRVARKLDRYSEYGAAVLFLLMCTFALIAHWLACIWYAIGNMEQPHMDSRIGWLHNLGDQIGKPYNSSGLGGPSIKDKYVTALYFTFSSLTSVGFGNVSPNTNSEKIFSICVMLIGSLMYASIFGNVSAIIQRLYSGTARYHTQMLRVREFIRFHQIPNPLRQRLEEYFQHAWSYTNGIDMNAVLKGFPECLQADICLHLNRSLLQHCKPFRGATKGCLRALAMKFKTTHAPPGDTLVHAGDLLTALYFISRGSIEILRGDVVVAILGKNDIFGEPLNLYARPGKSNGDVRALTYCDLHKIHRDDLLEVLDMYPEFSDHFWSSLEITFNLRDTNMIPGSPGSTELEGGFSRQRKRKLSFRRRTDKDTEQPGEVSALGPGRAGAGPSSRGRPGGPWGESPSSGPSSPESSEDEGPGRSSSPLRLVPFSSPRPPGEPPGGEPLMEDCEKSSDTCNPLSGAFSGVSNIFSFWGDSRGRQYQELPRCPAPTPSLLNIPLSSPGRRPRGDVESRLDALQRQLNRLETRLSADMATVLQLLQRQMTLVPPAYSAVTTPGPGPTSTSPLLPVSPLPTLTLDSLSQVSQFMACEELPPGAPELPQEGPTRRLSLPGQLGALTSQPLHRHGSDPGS
row,SMILES,"hERG current change (%, negative = inhibition) at 1uM"
1,Cc1nc(NC(=S)NC(=O)c2cncc(Br)c2)ccc1Br,12.9%
2,CCOc1cccc(/C=N/NC(=O)c2cccnc2)c1O,11.4%
3,CCC1CC2CC(NC(C)=O)C1C2 (stereo not drawn),6.29%
4,COc1ccc(CN2CN(C(C)C)CSC2=S)cc1,-3.08%
5,O=C(NC1CCCCC1)Oc1ccccc1,16%
6,CC1(C)Cc2c(c(N3CCOCC3)nc3snc(NC(=O)c4ccccc4)c23)CO1,-3.27%
7,Cc1nn(C)cc1N1C(=O)c2cccc3c(N)ccc(c23)C1=O,14.4%
8,Cc1ccsc1C(=O)NC1CCCCC1C (stereo not drawn),-1.48%
9,Br.CC(C)(C)C(=O)Cn1c(=N)n(Cc2ccccc2Cl)c2ccccc21,-14%
10,O=C(Nc1nnc(SCc2c(Cl)cccc2Cl)s1)c1ccc2ncsc2c1,7.63%
11,Cc1ccc(Cn2c(N/N=C/c3ccncc3)nc3c2c(=O)n(C)c(=O)n3C)cc1,4.52%
12,Cc1ccc(C)c(S(=O)(=O)N2CCN(C(=O)c3ccnn3C)CC2)c1,3.12%
13,CSc1nnc2c3cc(F)ccc3n(Cc3ccccc3)c2n1,7.64%
14,CSc1ccccc1NS(=O)(=O)c1cccc2nonc12,7.17%
15,Cn1c(=O)c2cc(S(=O)(=O)Nc3ccc4c(c3)OCO4)ccc2n(C)c1=O,-0.528%
16,Cc1ccc(-c2nc(N(C)C3CCN(C)CC3)c3ccccc3n2)cc1,10.1%
17,OC(CNCc1ccccc1Cl)COc1ccc(F)cc1 (stereo not drawn),6.53%
18,CC(C)(C)OC(=O)N[C@@H](Cc1ccccc1)c1nnc(SCC(N)=O)o1,3.15%
19,C=C(C)COc1ccc2c3c(c(=O)oc2c1OCC(=C)C)CCC3,8.64%

row,SMILES,"hERG current change (%, negative = inhibition) at 1uM"
1,Cc1cc(C)c2nc(NC(=O)C3CCCO3)sc2c1 (stereo not drawn),1.43%
2,O=C(Cn1c2[n+](c3ccc(C(F)(F)F)cc31)CCCCC2)Nc1ccccc1.[Cl-],10.3%
3,Cc1cccc2cc(CN(CCCN3CCOCC3)Cc3nnnn3C(C)(C)C)c(=O)[nH]c12,2%
4,Cc1nn(-c2ccccc2)nc1CNC(=O)C(C)Cc1ccccc1 (stereo not drawn),23.3%
5,CCCc1nnc(NC(=O)COc2ccc3c(c2)OCO3)s1,14.2%
6,N#CC12CNCC1CN=N2 (stereo not drawn),14.4%
7,Cc1ccc(NS(=O)(=O)c2cc(C(=O)N3CCc4ccccc4C3)ccc2Cl)cc1,10.2%
8,Cc1cc(NC(=O)CS(=O)(=O)c2ccc(Cl)cc2)no1,18%
9,Cl.OC(CNC1CCCC1)COc1c(F)cc(Br)cc1F (stereo not drawn),-2.28%
10,NC(=O)c1cccc(S(=O)(=O)N2CCCCC2)c1,-0.91%
11,COc1ccc(NC(=O)c2ccco2)cc1NC(=O)c1ccc(C#N)cc1F,7.28%
12,CCOCCn1c(CN2CCC(Cc3ccccc3)CC2)nc2c1c(=O)n(C)c(=O)n2C,-3.55%
13,COc1ccccc1N(CC(=O)NCc1ccco1)S(C)(=O)=O,15.2%
14,COc1nc(N(C)S(=O)(=O)c2ccc(C)cc2)nc(C)c1Cl,15.1%
15,Cc1cc(C(=O)CN2C(=O)NC3(CCCc4sccc43)C2=O)c(C)n1-c1ccc(Cl)cc1 (stereo not drawn),9.98%
16,CCOc1ccc(N2CC(C(=O)NC3CCCCCC3)CC2=O)cc1 (stereo not drawn),8.85%
17,OC[C@H]1O[C@@H](n2cnc3cc(Cl)c(Cl)cc32)[C@H](O)[C@@H]1O,7.63%
18,CC(=O)c1nccs1,9.85%
19,Cc1ccc(CN=c2c([N+](=O)[O-])nn(-c3cccc(Cl)c3)n2O)cc1,14%

row,SMILES,"hERG current change (%, negative = inhibition) at 1uM"
1,O=C(CSc1nc2ncc(Cl)cc2[nH]1)c1ccc2c(c1)OCO2,7.35%
2,COc1cccc(OC)c1C(=O)Nc1ccccc1Sc1ccccc1,-4.2%
3,O=C(Nc1ccccc1O)c1ccc(NS(=O)(=O)c2cccc3cccnc23)cc1,6.45%
4,Nc1ccn(CC(=O)NCc2ccccc2)c(=O)n1,9.63%
5,CCc1ccc(N2CC(C)Cn3c2nc2c3c(=O)n(CCN3CCOCC3)c(=O)n2C)cc1 (stereo not drawn),-1.2%
6,COC(=O)c1ccc(COc2ccc(/C=C/C(=O)c3ccc(OC)c(CSCC(=O)O)c3)cc2OC)cc1,17.2%
7,CCOC(=O)c1sc(N2C(=O)C(O)=C(C(=O)c3ccco3)C2c2cccc([N+](=O)[O-])c2)nc1C (stereo not drawn),3%
8,O=C1CSC(c2ccccc2)N1Nc1nc(N2CCOCC2)nc(N2CCOCC2)n1 (stereo not drawn),14.9%
9,O=C(COC(=O)c1ccco1)c1ccccc1,16.7%
10,CCCCOC(=O)c1cc(-c2ccc(/C=N/n3cnnc3)o2)ccc1Cl,12.7%
11,Cc1[nH]nc(SCC(=O)NC2CCCC2)c1[N+](=O)[O-],3.27%
12,Cc1ccc(/C=N/NC(=O)CSc2nnc(-c3ccc(Cl)cc3)n2-c2ccccc2)o1,2.41%
13,COc1ccc(-c2nn(-c3ccccc3)cc2/C=C/C(=O)NCCCn2ccnc2)cc1OC,10.6%
14,CN1CCC(N(C)S(=O)(=O)c2ccc(NC(=O)COc3cccc(C(F)(F)F)c3)cc2)CC1,0.205%
15,O=C(N[C@H](Cc1ccc(Cl)cc1)C(=O)O)OCC1c2ccccc2-c2ccccc21,8.98%
16,Cc1ccccc1NC(=O)C1CCCN1S(=O)(=O)c1ccccc1C(F)(F)F (stereo not drawn),5.87%
17,COc1ccc(C(=O)NC2CC2)cc1OC1CCN(Cc2ccc(SC)cc2)CC1,-96.9%
18,Cc1ccc(Cn2cccc2C2=NC(C)CO2)cc1 (stereo not drawn),-10.2%
19,CC(C)(CNC(=O)CNC(=O)c1ccccc1F)N1CCOCC1,17.5%

# From article PMC4336329 (PLoS ONE, 2015)
